Experimental findings from the RNAGym collection of RNA variant scans (doi:10.7554/elife.90254) are described below.

To fix the notation:
B1: OR4K15 (parent)
chain: GUUAACGGUCAUAGGCCAUGGAAACUAGGAGCACCAUUUCGCUGCCAGUGAAGAAAUGAACAAAGAAAAUCUGGGCCAGGCAGGCAUCAAAAGAAAUAGUCUUGCGCUCAACCAGAAAGUCUGUAAUCAUUUUAAGGGUA

The source gives no read counts; variants with many changes may rest on few reads.

The variants in this data set derive from B1. The data set is described as follows: self-cleavage, relative activity (ratio to wild type); higher = more cleavage; in vitro, sequencing; the parent is a self-cleaving ribozyme.
Turning to G7A A111G A126U, the self-cleavage came to 0.01. Under A5U A18G U38C U72A U100C stands 1.07. Under G7U A96G C121U U127C stands 0.9; under G8A U43C U57C A118G, 0.73; under U9A A11G A78G U108C A111G, 0.03.

As for G7A A22G A33G U43C, the self-cleavage was 1.06. Under A5U A52G A116G U132C stands 1.11; under A5G U49C C88A, 1.24.

Regarding G8U A90G U139C, the self-cleavage stood at 0.65. Under A5G U43C A125G stands 0.37; under A5G G50A U57C, 0.49; under G7U A30U U37C A82G, 0.58.

Consider A5G A129G U132C, for which the self-cleavage was 0.65. Under G7A U19C A27G stands 1.15; under C6A U87A U127C, 0.61.

On to C6A A11G A27G G41U A51G G65U U108A, for which the self-cleavage is 0.01. Under C6U A11G A27G A60G stands 0.56. Regarding A5U U37C U43C U49C G73A U108C U131C, the self-cleavage worked out at 0.02.

Regarding A5G U49C A92U, the self-cleavage amounted to 0.6. Under U9A A13U A22G U57C stands 0.92; under U9A A62G A94G, 1.18; under A5U U39C U87C, 1.25. For the variant A5U A68U A126G, the self-cleavage was 1.22.

As to G7A U12C C35A A68U U103C A111G, the self-cleavage worked out at 0.04. Under A5G U26A A36U A78G A135G stands 0.2. Under U9A U37C U100C stands 1.58.

With A5G U87C A95G A117G, the self-cleavage turned out to be 1.79. Under A5G U43C U57A A64U stands 0.46. As to A5U A52G U122C, the self-cleavage was 1.04. Under U9A G14A A47U A116G A140U stands 0.2. Regarding A5U A52G A114G U120C, the self-cleavage worked out at 0.07.

Take U9A U38A A114C: the self-cleavage was determined as 0.04. Under A5G U38C A60G A78U A82U U133C stands 0.21. Under A5U A23G A90U stands 1.29; under U9A A33U U43C A56G A96G, 0.81; under G8A G15A A86G U120C, 0.64. Under G8A A36U U70A stands 2.09; under G8A A11G G44A A68G U72C U108C U122C, 0.01; under A5G U37C A95G U108A A118G, 0.03. A5G C25A U38C U102C: the self-cleavage was 1.25. Under G7A A66G A95G U133C stands 1.36. Under A5U A51G A67G A68G U131C stands 1; under G7U U26C U39A U70C, 1.08. Under G8A U26C A64G stands 1.1; under A5G C42U A59G A62G A90U U124G A135G, 1.41. On to U9A U19A U37C U108C A116G U127C, for which the self-cleavage was 0.01. Take G7A A33G A82G: the self-cleavage came out at 0.12. With G7A G31A A69G U127A, the self-cleavage was 1.72. Take G8A A59G G79U: the self-cleavage is 0.15.

As for G7A C35A A89U U108A U122C, the self-cleavage came out at 0. Under A5G G75U A78U A116G stands 0.08. Under A5U A56G A92G A116G U120C A129G stands 0.18. With U9A A52G A117G, the self-cleavage turned out to be 1.71. As to U9A A90G A135G, the self-cleavage came out at 0.89. Regarding A5U A33U A82G A111G U120C, the self-cleavage was determined as 0.02. Under U9A U38C A64G U133C stands 1.78; under G7A G14A U103C, 0.49; under U9A A52G U108C, 0.02. Under C6A A18U A126G stands 0.89; under A5G U57C U132A G137U, 0.81.

Consider U9A A13G A23G, for which the self-cleavage turned out to be 0.42. Under A5G C25A U39A stands 0.94; under A5G U49C A60G A86G U100C, 0.44; under A5G C77A A95G, 0.88.

U9A U43A A82G A86G: the self-cleavage turned out to be 0.28.

For the variant G8A G48U A66G, the self-cleavage came out at 0.65. As to G8A A78G A91G U97C, the self-cleavage came to 0.12. Under C6U A36G G75A U102A stands 0.1; under G7A A68G A94G U100C A129G, 2.37. Under A5U A24G U38A A63G A69U U108C stands 0.12. Under U9A A86G U102C stands 1.57; under A5U U49A C112U, 0.08; under G8U A24C A62G U108C A116G, 0.01. On to U9A U37C U130G, for which the self-cleavage was determined as 0.67. For the variant A5U U87C A96G A117G U122G, the self-cleavage stood at 0.31. Under G7A U39C A82U stands 0.36; under G7U A24G A110G, 0.42. Under A5G U72C A82U stands 0.37; under C6A U26C U39C A69G G99U, 0.5. Consider G8A U26A U43C A96G A98G, for which the self-cleavage was found to be 0.35. For the variant A5G G44A A51G A52U A66G A140C, the self-cleavage turned out to be 1.12.

Take U9A A63G A91G U102C A118G U122C: the self-cleavage was 0.77. For G8A A114G U127C, the self-cleavage is 0.19. For G7A A33G A62G A69U A114U, the self-cleavage was 0.09. Under U9A A60G A69G stands 0.61.

U9A A52G U122A U132A: the self-cleavage was determined as 0.46. Under C6U U72A A92G U100C stands 0.35. Under A5U A56G A64G A82G stands 0.26; under C6A U57C U87C U103C, 0.36; under C6A A11G U49C A91G U100C, 1.41. Under U9A A52U A91U stands 0.39; under G7U A95U U108C A134G A135G, 0; under A5U U9C A82U A94G A96G, 0.34.

In the case of A5G U38C U70C, the self-cleavage amounted to 0.75. Under U9A A33G C128U stands 0.75. Under A5G C34G A94U U139A stands 1.17. Under G7A A56G A96G stands 1.65; under A5G G20A U43C U57C, 0.8; under U9A U19A A67G A111U, 0.03. In the case of U9A A62G A91G, the self-cleavage turned out to be 1.18. Under A5U U12C A92G U122C stands 1.35; under G7A A18U A96G, 1.72. Under G7U A60G A95G A135G stands 0.48.

As for A5G U39C U57A A62G A67G, the self-cleavage came to 0.9.

On to C6U U19C C42U A59G, for which the self-cleavage was determined as 1.35. Under C6U G28U G138A stands 1.4; under A5G U19C A33U U37C, 1.13.

As to A5G G15C A27G A52G, the self-cleavage came to 1.31. Turning to A5U U9A A89G A90G U108C, the self-cleavage was found to be 0.06. Under A5U A23G A55G stands 0.74; under A5U U39C A51G A91G U120C, 0.92; under A5G G53A A55G A62U A63G, 0.3. Under U9A A11G U19C A64G stands 1.2; under C6A A82G A91U U120C A126C A140G, 0.

G7A C25U A55G A56G A111G: the self-cleavage is 0.12. C6A U49C A82G G83A: the self-cleavage stood at 0.34. In the case of G8C A67G U72C A125G, the self-cleavage stood at 0.31. Under G7A U38C A59U U132C stands 0.37; under U9A U38C A62G G74C U132A, 0.2.

For G7A A13G A18U A30G U37C A66G, the self-cleavage was 1.75. Under G8A A11G A22U stands 1.11; under U9A A52G A92G, 1.26; under A5U C25A U43A A62G A68G, 1.12. In the case of A5G C42U A82G U102A G104A, the self-cleavage stood at 0.11. On to U9A A11U U37C, for which the self-cleavage was 1.44. Under U9A U19C A52U A59G A90G stands 0.17; under G7A A13G A78U, 0.69; under U9A A68G U97C A126G, 1.42. Under U9A A18G U39G A60G A134G stands 0.7; under A5U A33U A82U U127C U131C, 0.13. Under U9A A62G A96G stands 1.12; under A5U G15A U37C A51G A129G A135G, 0.49; under G7A A52G U87A, 1.05. Turning to C6U G65U A89G U132C, the self-cleavage was found to be 0.63. Under U9A U19C U57C A90G C128A U133C stands 0.76; under A5U U19A U49A, 0.64; under A5G U97C A111G U122C, 0.04. Under G7A A82G A111G stands 0.01; under C6U U9G A33G A47U A92G, 0.31.

On to G7A A11U A63G, for which the self-cleavage came to 0.97. Take A5U A13C A22G A56G U102A: the self-cleavage was 0.82. Under A5U A54U U108C stands 0.06. Under C6U A23G A24C A54G A62U A66U stands 0.64; under G8U A60G A63G A110G, 0.13; under G7U A23C A78G C85U, 0.38.

With A5G U26C A98U, the self-cleavage came to 1.21.

Turning to C6A A13G U131C A135U, the self-cleavage stood at 1.07.

For the variant G7A A56G U57A U103C A126G, the self-cleavage amounted to 0.32. Take G7A A54G A63U: the self-cleavage was 1.57. Under G7A A23G C81U U102C A135U stands 0.72; under A5G U19C A129G U131C, 1.24; under A5U U87C A111G A117G, 0.02.

On to U9A A22G C35U A64G A110G G123C, for which the self-cleavage was determined as 0.04.

For G7A A13G A47U A68G U87C U120C A126G, the self-cleavage came out at 0.31. Under C6G A91G A114G stands 0.49; under U9A A68G U87C, 1.88; under G7A U19A A60G A89G A90G A95G A118G, 0.52.

On to G7A C17A A64G, for which the self-cleavage worked out at 1.76.

With C6A A86G U108C, the self-cleavage was determined as 0.01. Under A5G G14A U127C stands 1.23; under G8A U9A A67G A68U C105U U120C, 0.04; under A5G G8U A62U U130C, 0.47.

As to C6G U9C A54G A86G A98U U122C, the self-cleavage was determined as 0.59. Under A5U A55G A78U U103A stands 0.13; under C6A A54G U70C U97C U122G, 0.09.

In the case of A5U U37C G48A A64G A68G A116C, the self-cleavage came out at 0.1. Under G7A U49C A111G U122C stands 0.02.
